About 540 (0.36%) of roughly 150,000 compounds showed an effect of 50% or more. This is one part of the list.

The test deals with Plasmodium falciparum. In words: Primary screen in NF54 nanoGlo assay, in single point, at 2uM, 72h; a lower Z score goes with more inhibition. The test is classed as functional, Erythrocyte. As to conditions: timepoint 72 hour.
By % Inhibition is commonly meant the relative decrease from the control value, in per cent. As for `COc1cccc(CN2CC(C(=O)N3CCCCC3C)CC2=O)c1` (configuration not stated), the “% Inhibition” value is reported as -2% and the Z score came out at 0.3.
The corresponding values for `Cc1ccc(CCNCc2c(C(=O)N3C[C@@H](C)O[C@@H](C)C3)nc3ccc(Cl)cn23)cc1` are -8% and 1.18.
Consider `Cc1cccc2c1[C@](C)(c1ccccc1)CC(C)(C)N2C(=O)Cc1ccccc1`, for which the “% Inhibition” value is listed as 3% and the Z score was -0.67.
Take `C[C@@H](c1ccon1)N(C)C(=O)CCc1cccc(F)c1`: the “% Inhibition” value is -5% and the Z score was 0.97.
The corresponding values for `COC[C@H]1CCCN1S(=O)(=O)NCCCC1CCCC1` are -3% and 0.62.
`Cc1cc(C)c(C#N)c(-c2cccc(C(=O)N3CC=C[C@@H]3C(C)C)c2)n1`: the “% Inhibition” value is on record as -13% and the Z score was 1.18.
The corresponding values for `O=C(C1CCN(S(=O)(=O)c2ccc(-c3noc(C4CCCC4)n3)cc2)CC1)N1CCCC1` are -17% and 2.04.
For `COc1ccc(F)c(CN2CCC[C@@]3(CCN(C(=O)CN4CCCC4=O)C3)C2)c1`, the “% Inhibition” value is recorded as -15% and the Z score was found to be 1.33.
`CN1CCN(c2ccc(-c3nc(C4CC4)nn3CC(F)(F)F)cc2)CC1`: the “% Inhibition” value is reported as 0% and the Z score was 0.08.
The corresponding values for `CC1(O)CC(C(=O)N2CC[C@@H](O)[C@H]2c2ccc(Cl)cc2)C1` (some centres not stated) are 5% and -0.69.
The corresponding values for `OC[C@H]1CC[C@@H](N[C@H]2CCC23CCC3)CC1` are -16% and 1.61.
Take `CNC(=O)c1ccnc(N2CCC3(CC2)CC(=O)N(Cc2ccccc2)C3)c1`: the “% Inhibition” value was -22% and the Z score stood at 2.43.
The corresponding values for `CC(C(=O)Nc1ncccn1)N1CCCCC1Cn1cccn1` (configuration not stated) are 1% and -0.24.
The matching figures for `Cc1cc(C(=O)NCc2ccccn2)ccc1N(C)S(=O)(=O)c1ccccc1`: -15% and 1.83.
The matching figures for `Cc1cc(N)n(CC(=O)N2CCC[C@H](c3nnc[nH]3)C2)n1`: -8% and 1.01.
In the case of `CCc1ccc(NCC(=O)NC(=O)NC)c(C(=O)OC)c1`, the “% Inhibition” value is listed as -43% and the Z score came out at 5.1.
Consider `CC(C)(C)[C@H](NC(=O)c1cscn1)C(F)(F)F`, for which the “% Inhibition” value is -8% and the Z score is on record as 0.89.
`Cc1ccc([C@H](C)NCc2ncc(-c3ccccc3)s2)s1`: the “% Inhibition” value amounted to 7% and the Z score was -1.03.
Take `Cn1cc(C(=O)N2CC(COc3ccccc3)C2)nn1`: the “% Inhibition” value is -2% and the Z score came out at 0.34.
The matching figures for `COc1ccc(S(=O)(=O)N(C)c2cccc(C(=O)N3CCCC3)c2)cc1`: 9% and -1.55.
The corresponding values for `CCc1cccc(C)c1NC(=O)c1ccnc(-c2ccsc2)c1` are -6% and 0.83.
The matching figures for `CC1CN(C(C)CNCc2cn(C)nc2-c2ccncc2)CC(C)O1` (configuration not stated): -2% and 0.17.
In the case of `CN(C[C@]1(O)CCc2ccccc21)C(=O)c1cc(C(N)=O)cs1`, the “% Inhibition” value is reported as -3% and the Z score is 0.46.
Take `Cc1c(C)n(-c2ccccc2)c2nc(C(=O)N[C@@H](C)c3ccccc3)nc(N3CCCCC3)c12`: the “% Inhibition” value is on record as -8% and the Z score is on record as 1.23.
The corresponding values for `CN(C)C(=O)c1ccc(CNC(=O)N(C)C2Cc3ccccc3C2)o1` are -7% and 1.12.
The corresponding values for `O=C(O)[C@H]1CN(S(=O)(=O)CCc2c(F)cccc2F)C[C@@H]1c1ccccc1` are -24% and 3.03.
In the case of `Cn1cc(C(=O)N2CCC(Oc3cccc(C(F)(F)F)c3)CC2)ccc1=O`, the “% Inhibition” value is reported as -11% and the Z score was 1.62.
The corresponding values for `Cc1ccc2c(=O)c(-c3nc(-c4ccccc4C)no3)cn(CC(=O)N3CCc4ccccc4C3)c2n1` are -2% and 0.15.
Consider `CC1CN(CC2CCCCO2)C(C)CO1` (configuration not stated), for which the “% Inhibition” value stood at 7% and the Z score is recorded as -0.83.
The corresponding values for `O=C(c1cc(F)c(F)c(O)c1F)N1CCCCC1C1CCNC1` (configuration not stated) are -6% and 1.15.
For `O=C(NC(c1ccccc1)c1ccccc1)N1CC(N2C(=O)CCC2=O)C1`, the “% Inhibition” value was 1% and the Z score is -0.12.
The matching figures for `CCOC(=O)C1(Cc2ccc(Cl)cc2)CCN(C2CCCC2)CC1`: 1% and -0.19.
The corresponding values for `C[C@H]1CN(C(=O)N(C)C)CCC1(F)F` are -4% and 0.51.
`COc1ccc(CNC(=O)[C@H]2CN(C(=O)c3ccncc3)CC23CCCCC3)c(OC)c1`: the “% Inhibition” value is on record as 44% and the Z score is given as -4.96.
Consider `CC(C)=CCN1C[C@@H]2CC[C@H]1CN(C(=O)c1ccc(N3CCCC3=O)cc1)C2`, for which the “% Inhibition” value is 4% and the Z score is on record as -0.44.
The matching figures for `CC[C@@H](CO)N1CCN(C(=O)Nc2ccc(C)s2)CC1`: -13% and 1.06.
For `O=C(COC1CCCCC1)NCCCNC(=O)c1cccc(O)c1`, the “% Inhibition” value is given as -21% and the Z score was 4.25.
The matching figures for `NCCNCCOCCOc1cccc(Cl)c1Cl`: -9% and 1.17.
The matching figures for `CCC(CC)n1nc(C(=O)NCC23CCCN2CCC3)cc1C`: -15% and 2.13.
The matching figures for `CCC(C)NC(=O)C1CCCN1c1nnc(N2CCCC2=O)s1` (configuration not stated): -6% and 0.95.
For the molecule `COc1ccc(-c2noc(-c3cnn(CC4CC4)c3)n2)cc1OC`, the “% Inhibition” value was -2% and the Z score was determined as 0.36.

The values are drawn from ChEMBL document CHEMBL4888484, “Replenishing the malaria drug discovery pipeline: Screening and hit evaluation of the MMV Hit Generation Library 1 (HGL1) against asexual blood stage Plasmodium falciparum ,using a nano luciferase reporter read-out” (2022).
